The other results are listed elsewhere or left out.

Data on 54 sequences can be found in PMC7819943, “Rice protein-binding microarrays: a tool to detect cis-acting elements near promoter regions in rice”.

The target in the experiment is T1, OsWOX13 (Oryza sativa, UniProt Q5QMM3 1-267).
T1 sequence: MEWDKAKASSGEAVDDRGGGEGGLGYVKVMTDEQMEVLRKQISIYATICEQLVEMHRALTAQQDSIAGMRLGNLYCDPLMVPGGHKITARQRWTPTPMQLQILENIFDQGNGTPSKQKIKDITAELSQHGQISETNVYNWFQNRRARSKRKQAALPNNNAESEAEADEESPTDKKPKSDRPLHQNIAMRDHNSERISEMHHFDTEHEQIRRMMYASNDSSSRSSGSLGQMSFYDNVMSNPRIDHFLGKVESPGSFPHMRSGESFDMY
The experiment is described as follows: protein-binding microarray (RPBM); PBS, 2% BSA, 51.3 ng/ul salmon testes DNA, 50 uM zinc acetate, 200 nM TF, 25 C, 1 h; high values mean tight binding. The settings on record: protein: recombinant; tags: N-terminal polyhistidine and DsRed monomer fusion (pET32a); label: CyDye5-dUTP incorporated in the synthesized complementary strand; 3' TTTTT single-stranded linker to array surface; dsDNA, one strand shown. In outline: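 An Axon 4000B scanner gave the binding signal as per-feature fluorescence intensity in arbitrary units. This followed washing of a custom Agilent array that had been incubated for 1 h at 25 °C with 200 nM protein in PBS, 2% BSA, salmon testes DNA and 50 µM zinc acetate. The proteins were transcription factors fused at the N-terminus to polyhistidine and DsRed, expressed in E. coli BL21-CodonPlus and purified on Ni–NTA.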
Take “TCCTCAAGATGACTGTGAATTATGGTTTCGAGTGTGTGTGCGGAGTCACCTAGTGCAG”: the binding signal is 4060 fluorescence intensity (a.u.).
Turning to “TCTAGACTAATTAATAAGCTTTATAGTAGTAAGAAGCATCCGGAGTCACCTAGTGCAG”, the binding signal was 20500 fluorescence intensity (a.u.).
Consider “TTATTATGAAAATTATTGATTGAGCTGTCATAATATAGGACGGAGTCACCTAGTGCAG”, for which the binding signal is 17700 fluorescence intensity (a.u.).
With “GTGATTTTATGAGTTATAACTTATAAATGGATATGAGACTCGGAGTCACCTAGTGCAG”, the binding signal was 6130 fluorescence intensity (a.u.).
On to “AAAGATTGCCGAGTTTAATTGCAATCAATTACGGGAAGATCGGAGTCACCTAGTGCAG”, for which the binding signal was 52900 fluorescence intensity (a.u.).
Regarding “AAACAATTATTCAATATTCATCATTTGGCTCAATCTAGTCCGGAGTCACCTAGTGCAG”, the binding signal is 5020 fluorescence intensity (a.u.).
The figure for “ACCAATTCAAATTTCGATTAAAATCAATGAAACATAAACCCGGAGTCACCTAGTGCAG” is 3610 fluorescence intensity (a.u.); for “ACTAAATTACCGTGTAGCATTTGAGATTTTAACATCCATTCGGAGTCACCTAGTGCAG” it is 15000 fluorescence intensity (a.u.); for “CCCCTATTAAATTATGTGCTGGCACCATTCCCAGCAAAGGCGGAGTCACCTAGTGCAG” it is 4570 fluorescence intensity (a.u.).
“CCGCATGATTAATTAAATAATAGTGAAATGAGCGTGGCTCCGGAGTCACCTAGTGCAG”: the binding signal is 22300 fluorescence intensity (a.u.).
On to “TACTAATTTCTCTCTCTCTCCTCTCATCAGGGTCAGTTTCCGGAGTCACCTAGTGCAG”, for which the binding signal is 5390 fluorescence intensity (a.u.).
On to “AATTTAAATATTAAAATTTAATTTTGAAGTTGATTTTAGACGGAGTCACCTAGTGCAG”, for which the binding signal was 3340 fluorescence intensity (a.u.).
As for “TTGTGGCTTGATTGATCCGTCCTCGACCCATAGGGGTGGTCGGAGTCACCTAGTGCAG”, the figure is 39100 fluorescence intensity (a.u.).
Regarding “ATGATTGAATGAATGAAACCCTAGTTTGTTTTGATTTGTACGGAGTCACCTAGTGCAG”, the binding signal is 54400 fluorescence intensity (a.u.).
As for “TTTATTATTGATGAGCAAATAGGAATCAGATGCAAATACTCGGAGTCACCTAGTGCAG”, the binding signal is 8910 fluorescence intensity (a.u.).
As to “AATGTTTGTGATTGGCTGAGAGGAGAAGATAGGTAGAAAACGGAGTCACCTAGTGCAG”, the binding signal is 17800 fluorescence intensity (a.u.).
As for “GTATGGATCACCTGATTAATTGGGCCGTCGTTCCATTCCCCGGAGTCACCTAGTGCAG”, the figure is 9310 fluorescence intensity (a.u.); as for “CCCTAAATTGGCCTTACCAATATTTGGCAATTTCAATAGTCGGAGTCACCTAGTGCAG”, 34300 fluorescence intensity (a.u.); as for “TAGTAACTATAAATCAATGGTTAAGATTTCTTTCAGTCCTCGGAGTCACCTAGTGCAG”, 9460 fluorescence intensity (a.u.).
As to “TTTAAATCAACTTGGGCAAATTTGATCTGAAATCCACTCACGGAGTCACCTAGTGCAG”, the binding signal is 4710 fluorescence intensity (a.u.).
Consider “TAATCAATCAATCATCCAACCCAGCCAGCGTGATCAGTTTCGGAGTCACCTAGTGCAG”, for which the binding signal was 39500 fluorescence intensity (a.u.).
Turning to “AATAATTAATCAAGCAAAACGAGTAGCTAAGCTAGCTCGTCGGAGTCACCTAGTGCAG”, the binding signal was 18000 fluorescence intensity (a.u.).
In the case of “GCTTAAATTAATATACCTGAACCGGCGAGCATTTAAATTTCGGAGTCACCTAGTGCAG”, the binding signal is 5370 fluorescence intensity (a.u.).
The figure for “CTCCTTCATCTCTAATCACGCACATGCAACTCACTAGCTCCGGAGTCACCTAGTGCAG” is 3850 fluorescence intensity (a.u.); for “CAACAATGATAAATTTACCCGGTCCAAATTGAAAAGATAGCGGAGTCACCTAGTGCAG” it is 10400 fluorescence intensity (a.u.).
“TAATTTAGATGATTTATATTTTAAGATCCGTCATGAGAAACGGAGTCACCTAGTGCAG”: the binding signal was 6850 fluorescence intensity (a.u.).
As for “TTATTGATGAACAAACTAAAATAATCAAGCTACAGGGACTCGGAGTCACCTAGTGCAG”, the figure is 8030 fluorescence intensity (a.u.).
“TGAATTGATGGATTCGGTCTCATGCAGTCAATAGTGTGACCGGAGTCACCTAGTGCAG”: the binding signal is 26300 fluorescence intensity (a.u.).
On to “TGACTCTTATTTAACGACTGATTGTTGTCAAGATAATGAACGGAGTCACCTAGTGCAG”, for which the binding signal was 3770 fluorescence intensity (a.u.).
For “TAAATTAATTATTAAACACAGCCATTAATGTGCGAGGTACCGGAGTCACCTAGTGCAG”, the binding signal is 34800 fluorescence intensity (a.u.).
For the sequence “TTGGCACTACCAAATCAATCAGGTAGTGTTGAATTTGAACCGGAGTCACCTAGTGCAG”, the binding signal is 3630 fluorescence intensity (a.u.).
As to “ATAATTTGATCAAATTACATGTGATTTTGTGAAATTTACACGGAGTCACCTAGTGCAG”, the binding signal was 39700 fluorescence intensity (a.u.).
Turning to “ACAAAATCACATAAAAGATTTATAAATATCTAACCACAGCCGGAGTCACCTAGTGCAG”, the binding signal was 5960 fluorescence intensity (a.u.).
With “AAAACATAATTAGCTGCACGCACTACGTACACAAGATCACCGGAGTCACCTAGTGCAG”, the binding signal was 12300 fluorescence intensity (a.u.).
As for “AGCTGATAGATCATTTTAAGCACGCTGGGCCAAATGGGCACGGAGTCACCTAGTGCAG”, the figure is 21400 fluorescence intensity (a.u.); as for “CACACTATTAATCATTTTGATTTTGGTATACTGCACTTTTCGGAGTCACCTAGTGCAG”, 6110 fluorescence intensity (a.u.); as for “ATAATAAACTATGGGATGATTTCAAATAATACTCAAATCGCGGAGTCACCTAGTGCAG”, 5300 fluorescence intensity (a.u.).
Take “TCTTAATAAATTTCGGCCGAAGTAACTTTCGTCGGCCTGGCGGAGTCACCTAGTGCAG”: the binding signal is 3380 fluorescence intensity (a.u.).
As for “CCATTAACTAAAAGACAGCATGATCGCTACAGAGGTTACGCGGAGTCACCTAGTGCAG”, the figure is 3160 fluorescence intensity (a.u.); as for “TATATATATATATATATATATATATAGCTGGGCGATGAACCGGAGTCACCTAGTGCAG”, 16300 fluorescence intensity (a.u.).
Regarding “ATGAATAATGGAAAGATTATGTTAAACCCTCTCCAGATTGCGGAGTCACCTAGTGCAG”, the binding signal was 9630 fluorescence intensity (a.u.).
As for “CGTGACCGCTTGCTAATTGTTATGCAGTACGTACTACTATCGGAGTCACCTAGTGCAG”, the figure is 9640 fluorescence intensity (a.u.).
The figure for “ATTTTATAAATTAATTTATAGAATTTAAAATCCGTATTTCCGGAGTCACCTAGTGCAG” is 17300 fluorescence intensity (a.u.); for “GACATTAATTAATTTAAATTAACGCTCACTGTTCATCGCCCGGAGTCACCTAGTGCAG” it is 65500 fluorescence intensity (a.u.).
With “CTAAAATAATTGGGAGCGAAACTGAAGTTGTAGAATCCGGCGGAGTCACCTAGTGCAG”, the binding signal was 37900 fluorescence intensity (a.u.).
On to “TCCCTTAAATACCAATTAAATGGTTACAGAAATTCTAAAACGGAGTCACCTAGTGCAG”, for which the binding signal was 9190 fluorescence intensity (a.u.).
The figure for “AATTTTAATTTCTTTTAACAAAATTTATTTGGTGTTCATCCGGAGTCACCTAGTGCAG” is 10400 fluorescence intensity (a.u.); for “CTTTTCAATCAACTTGTTTAGTTTATTGGTTATCCATTTGCGGAGTCACCTAGTGCAG” it is 34400 fluorescence intensity (a.u.).
On to “TTTAACAGACGAAAACAGCTGTTATTGTGTTCTTTGTTGACGGAGTCACCTAGTGCAG”, for which the binding signal was 17300 fluorescence intensity (a.u.).
The figure for “AGGACTAATAGATTTCCAAGATGATCGGGACTGACCGATCCGGAGTCACCTAGTGCAG” is 10600 fluorescence intensity (a.u.).
As for “AACCTTATGACGAAGTAATCACCAAATTAAGGCCATGCATCGGAGTCACCTAGTGCAG”, the figure is 4160 fluorescence intensity (a.u.); as for “ATCTTTAATTTGCTCATGGCCATTGGGACCCAATCACCCACGGAGTCACCTAGTGCAG”, 19900 fluorescence intensity (a.u.).
As for “AGATAACCGTATCAATCTTAACCCTGTCTTATATTATGGGCGGAGTCACCTAGTGCAG”, the figure is 5600 fluorescence intensity (a.u.); as for “AAAACTACACAATCAACGAATGGGTCCACTTACGAGATGACGGAGTCACCTAGTGCAG”, 5180 fluorescence intensity (a.u.).
